Experimental data as given in publication PMC4336329 (PLoS ONE, 2015).
In all, about 310,000 compounds went through this assay and about 2,200 (0.71%) showed an effect of 50% or more. The effect is printed as a negative number. The list shows a part of the results.

biological target: human ether-à-go-go-related gene (hERG) potassium channel (human, UniProt Q12809); test: primary screen, population patch clamp on CHO cells stably expressing hERG
Sequence (Q12809 whole entry, looked up): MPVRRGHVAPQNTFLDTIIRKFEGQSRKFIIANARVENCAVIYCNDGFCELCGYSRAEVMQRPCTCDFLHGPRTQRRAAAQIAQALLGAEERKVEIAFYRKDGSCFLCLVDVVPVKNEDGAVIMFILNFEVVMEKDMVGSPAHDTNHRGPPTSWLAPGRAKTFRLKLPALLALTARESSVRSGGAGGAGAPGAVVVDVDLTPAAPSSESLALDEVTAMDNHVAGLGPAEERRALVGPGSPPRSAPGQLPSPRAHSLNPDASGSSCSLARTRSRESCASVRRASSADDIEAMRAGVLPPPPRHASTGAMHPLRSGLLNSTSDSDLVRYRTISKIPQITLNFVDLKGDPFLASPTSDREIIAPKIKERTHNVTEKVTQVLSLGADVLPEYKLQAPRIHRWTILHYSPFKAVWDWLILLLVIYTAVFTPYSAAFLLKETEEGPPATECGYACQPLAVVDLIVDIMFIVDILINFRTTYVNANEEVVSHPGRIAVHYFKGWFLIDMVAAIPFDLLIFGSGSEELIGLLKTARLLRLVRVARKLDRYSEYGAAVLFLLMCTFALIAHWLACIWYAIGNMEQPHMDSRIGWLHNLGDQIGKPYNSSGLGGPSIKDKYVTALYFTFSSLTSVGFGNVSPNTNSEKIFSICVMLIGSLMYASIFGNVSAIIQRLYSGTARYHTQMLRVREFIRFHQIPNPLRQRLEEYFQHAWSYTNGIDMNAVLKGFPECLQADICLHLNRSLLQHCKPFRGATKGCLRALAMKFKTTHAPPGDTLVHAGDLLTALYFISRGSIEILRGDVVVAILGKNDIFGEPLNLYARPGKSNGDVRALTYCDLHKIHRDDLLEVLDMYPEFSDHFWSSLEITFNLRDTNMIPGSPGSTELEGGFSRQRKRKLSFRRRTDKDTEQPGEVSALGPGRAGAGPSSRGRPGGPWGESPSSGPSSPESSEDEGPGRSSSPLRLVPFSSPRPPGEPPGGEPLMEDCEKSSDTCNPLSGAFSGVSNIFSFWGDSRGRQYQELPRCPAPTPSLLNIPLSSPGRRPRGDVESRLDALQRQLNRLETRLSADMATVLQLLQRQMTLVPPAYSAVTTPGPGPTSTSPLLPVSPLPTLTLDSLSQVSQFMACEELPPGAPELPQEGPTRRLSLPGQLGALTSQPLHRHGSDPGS

Row | Compound | hERG current change (%, negative = inhibition) at 1uM
1 | COc1ccc(/C=N/NC(=O)CSc2ccccn2)cc1OC | 10.7%
2 | Cc1cc(NC(=O)C2COc3ccccc3O2)no1 (stereo not drawn) | 5.13%
3 | Cc1nc(NC2CCCCC2)c2nnn(Cc3ccccc3Cl)c2n1 | 17.8%
4 | CC(=O)O[C@]1(C(C)=O)CC[C@H]2[C@@H]3C=C(Cl)C4=CC(=O)CC[C@]4(C)[C@H]3CC[C@@]21C | -6.51%
5 | O=c1oc2ccccc2c(NC2CCCCC2)c1NS(=O)(=O)c1ccc(F)c(Cl)c1 | 16.5%
6 | C(=NC12CN3CN(CN(C3)C1)C2)c1cccs1 | 7.36%
7 | Cc1ccc(S(=O)(=O)N2CCCN(S(=O)(=O)c3ccc4c(c3)OCCO4)CC2)cc1 | 8.79%
8 | O=C(c1cccn2c(=O)c3cc(Br)ccc3nc12)N1CCC2(CC1)OCCO2 | -14.2%
9 | Cc1ccc(-c2c[n+](CC(=O)Nc3ccccc3)c3n2CCC3)cc1.[Cl-] | -3.82%
10 | O=C(Nc1nccs1)C1CCN(S(=O)(=O)c2cccs2)CC1 | 1.86%
11 | Cl.O=C(NCCCn1ccnc1)c1cccc(S(=O)(=O)N2CCCCCC2)c1 | -1.53%
12 | CC(C)(Oc1ccc(C2CC2(Cl)Cl)cc1)C(=O)O (stereo not drawn) | 5.75%
13 | CC(=O)Nc1ccc(NC(=O)C2CCCCC2C(=O)O)cc1 (stereo not drawn) | 7.1%
14 | CCOC(=O)c1c(NC(=O)C2=C(C)NC(=S)NC2c2ccc(F)cc2)sc(C)c1C (stereo not drawn) | 3.08%
15 | O=C(NCCc1c[nH]c2ccccc12)N[C@@H](Cc1ccccc1)C(=O)O | 6%
16 | O=C(NCc1ccccc1Cl)c1nnc(CS(=O)(=O)c2ccccc2)o1 | -4.42%
17 | CCOC(=O)CCC(=O)NNC(=O)c1ccc(NC(=O)c2ccccc2)cc1 | 5.93%
18 | COc1ccc(OCCn2c(=O)sc3ccccc32)cc1 | 4.32%
19 | Fc1ccc(NCc2nnc3n2CCCCC3)cc1 | 27.4%
20 | CC(C)c1ccc(NC(=O)/C(C#N)=C/c2ccncc2)cc1 | -16.4%
21 | CCn1c(-c2cc(-c3ccccc3)sc2N)n[nH]c1=S | 11.7%
22 | CCc1ccc(-c2c(C)sc(NC(C)=O)c2C(N)=O)cc1 | 4.69%
23 | O=C(/C=C/c1cccs1)N1CCN(Cc2ccc3c(c2)OCO3)CC1 | -2.69%

Row | Compound | hERG current change (%, negative = inhibition) at 1uM
24 | CC(C)(C)NC(=O)CN(CCc1ccccc1)C(=O)c1csnn1 | 16.6%
25 | C1=C(CCNC2=NCCCCC2)CCCC1 | 7.91%
26 | COc1ccc(NC(=O)c2nc[nH]c2C(=O)N2CCN(c3ccccc3)CC2)cc1 | 12.3%
27 | COc1cccc(CNC(=O)C(C(=O)NCc2cccc(OC)c2)c2ncc(C(F)(F)F)cc2Cl)c1 | 7.98%
28 | COc1ccc(NS(=O)(=O)c2c(C(=O)N3CCCCCC3)c(C)n(C)c2C)cc1 | 16%
29 | COc1ccc(CCNC2CCCCC2)cc1.O=C(O)C(=O)O | 9.63%
30 | COC(=O)c1cc(=O)n2c(sc3ccccc32)c1C#N | 14.4%
31 | C=CCc1c(Cl)nc(C)nc1NCc1ccccc1 | 14.1%
32 | Cc1ccc(NNC(=O)c2ccc(Cl)cc2)nn1 | 15%
33 | O=c1c2sccc2[nH]c(=S)n1-c1ccccc1 | 6.19%
34 | COc1cc(OC)c(C(=O)NCc2cccnc2)cc1OC | 7.5%
35 | Cc1ccc(N2CC(C(=O)NCCS(=O)(=O)N3CCN(c4ccccc4)CC3)CC2=O)cc1C (stereo not drawn) | 1.93%
36 | CNC(=S)N1N=C(c2ccc(Br)cc2)CC1c1ccc(Br)cc1 (stereo not drawn) | 4.69%
37 | CCCNS(=O)(=O)c1ccc(CCC(=O)NCC2CCCO2)cc1 (stereo not drawn) | 13.5%
38 | CSCCC(NC(=O)c1ccccc1Br)C(=O)NNC(=O)c1ccco1 (stereo not drawn) | 14.9%
39 | CC1CCCN(c2cc(N(C)CCO)c([N+](=O)[O-])c3nonc23)C1 (stereo not drawn) | 16%
40 | Cc1ccc(C)c(Nc2ccc(C(=O)NCCc3ccccc3)cn2)c1 | 10.7%
41 | Cc1cc(C(F)F)n2nc(C(=O)Nc3cccnc3Cl)nc2n1 | 15.4%
42 | Cc1nc(Cc2nnc(SCC(=O)N(C)c3ccccc3)o2)cs1 | 13.8%
43 | COCCNC(=O)CN1CCC(NC(=O)Nc2ccccc2)CC1 | 1.27%
44 | CC1(OC(=O)C2CCCC2)C(=O)C=C2C=C(c3ccc(C#N)cc3)OC=C2C1=O (stereo not drawn) | 12.1%
45 | COCc1ccc(CN2CCCC(CCC(=O)NCc3cccc(OC)c3)C2)o1 (stereo not drawn) | 11%
46 | COc1cccc(C(=O)N(CN2CCCC2=O)c2cccc(Cl)c2)c1 | -3.23%

Row | Compound | hERG current change (%, negative = inhibition) at 1uM
47 | CCOC(=O)Cn1c(=O)oc2cc(S(=O)(=O)NC3CCCc4ccccc43)ccc21 (stereo not drawn) | 7.9%
48 | O=C(CN1C(=O)NC2(CCCC2)C1=O)Nc1nc2ccccc2[nH]1 | 11.6%
49 | CCc1ccc(C(=O)OCC(=O)NCCNC(=O)COC(=O)c2ccc(CC)cc2)cc1 | 10.8%
50 | Cc1nn(CC(=O)Nc2c(C)n(C)n(-c3ccccc3)c2=O)c(C)c1[N+](=O)[O-] | 8.99%
51 | COc1ccc(NC(=S)NC(=O)Cc2ccccc2)c(OC)c1 | 15.2%
52 | CC1CCCCC1NC(=O)c1ccc(S(=O)(=O)N2CCCC2)cc1 (stereo not drawn) | 13.2%
53 | CC1(C(=O)NC(=S)N(Cc2ccccc2)c2ccccn2)CC1(Cl)Cl (stereo not drawn) | 12.4%
54 | COc1ccc(C(=O)NNC(=O)CN2CCC(n3nnc4cc(C(F)(F)F)ccc43)CC2)cc1 | 1.94%
55 | c1ccc(-c2noc(-c3ccccc3-c3ccccc3)n2)cc1 | 12.5%
56 | CCOc1cc(C2C(C(=O)OC)=C(C)N=C3SC(C)C(=O)N32)ccc1OC(C)=O (stereo not drawn) | 1.43%
57 | Nn1c(SCC(=O)NCCN2C(=O)CSC2=O)nnc1-c1ccc(OC(F)F)cc1 | 20.3%
58 | CCOC(=O)CN1N=C(c2ccc(C)cc2)CCC1=O | -9.75%
59 | CC(C)N1C(=O)c2ccc(C(=O)O)cc2C1=O | 3.86%
60 | CC(O)CNc1nc2c(c(=O)n(C)c(=O)n2C)n1Cc1cccc(Br)c1 (stereo not drawn) | 2.69%
61 | Cc1cc(NC(=O)NC(=O)c2ccccc2F)no1 | 18.2%
62 | COC(=O)c1cc(S(=O)(=O)NCC2CCN(Cc3ccc(Cl)cc3)CC2)cn1C | 0.856%
63 | C/C(=N\NC(=O)Cc1csc(N2CCOCC2)n1)c1ccccc1 | -13.8%
64 | CC(=O)NC(CCS(C)(=O)=O)C(=O)Nc1cc(C)on1 (stereo not drawn) | 7.45%
65 | CCOC(=O)c1sc(=S)n(-c2ccc(OC)cc2)c1C | 8%
66 | CC(=O)Nc1ccc(NC(=O)CSc2nnc(NC(=O)C3CC(=O)N(c4ccc(F)cc4)C3)s2)cc1 (stereo not drawn) | 7.39%
67 | Cc1ccc(/C=N/NC(=O)C2=NNC(c3ccccc3)(c3ccccc3)C2)c(O)c1 | -9.69%
68 | CCc1ccc(CNCc2cccnc2)cc1 | 9.07%
69 | CC(CCc1ccccc1)NCC(O)COc1ccccc1 (stereo not drawn) | -6.95%

Row | Compound | hERG current change (%, negative = inhibition) at 1uM
70 | CC1(C)NC(=O)N(CC(O)CN(c2ccccc2)S(=O)(=O)c2ccc([N+](=O)[O-])cc2)C1=O (stereo not drawn) | 5.59%
71 | O=C(CSc1nc2ccccc2o1)NCc1n[nH]c(=O)c2ccccc12 | 2.21%
72 | CCOC(=O)c1cc2n(c1C)-c1ccccc1C2=O | 8.74%
73 | COC(=O)c1ccc(OC(=O)C2CSC3(C)CCC(=O)N23)cc1 (stereo not drawn) | 4.79%
74 | CN(C(=O)CS(=O)(=O)c1cn(CC(=O)N2CCOCC2)c2ccccc12)c1ccccc1 | 11.6%
75 | Cn1ccnc1C(O)(c1nnc(-c2ccccc2)o1)C(F)(F)F (stereo not drawn) | 17.8%
76 | CC1(C)Cc2c(sc3c2C2=NCCN2C=N3)CO1.Cl | 11.2%
77 | Cc1ccc(C(C(=O)NC(C)(C)C)N(CCCN2CCOCC2)C(=O)c2ccc(-c3ccccc3)[nH]2)o1 (stereo not drawn) | -0.731%
78 | Cc1cc(C)c2c3c(sc2n1)C(=O)N(c1ccccc1)CC(=O)N3 | 14.4%
79 | COc1cccc(CC(=O)NCC2COc3ccccc3O2)c1OC (stereo not drawn) | 1.42%
80 | CCOc1cc(C2NCc3ccccc3-n3cccc32)ccc1O.Cl (stereo not drawn) | -5.6%
81 | O=C(CSc1nnc(NC(=O)c2c(F)cccc2F)s1)Nc1ccccc1F | 9.35%
82 | C=CCn1cc(/C=N/Nc2nc3ccccc3[nH]2)c2ccccc21 | 10.9%
83 | CCCCc1ccc(NC=C2C(=O)OC3(CCCCC3)OC2=O)cc1 | 9.43%
84 | Nc1c(C(=O)NCc2ccco2)c2nc3ccccc3nc2n1Cc1ccc(F)cc1 | 14.1%
85 | Cc1ccc(C(c2nnnn2CC2CCCO2)N2CCN(C)CC2)cc1.Cl (stereo not drawn) | 2.52%
86 | O=C(OCc1nnc(-c2ccc(Br)cc2)o1)c1cncc(Br)c1 | 2.67%
87 | Cc1ccc(C#N)c(SCc2cccc(Br)c2)n1 | 17.2%
88 | CN1CCCN(C(=O)CC2(CC(=O)O)CCCCC2)CC1.Cl | 15.6%
89 | O=C(CSc1nccc(=O)[nH]1)N1CCOCC1 | -1.47%
90 | C=CCNC(=O)CCCOc1cc(C)ccc1C | -0.933%
